Measured values as given in publication PMC10055926.

System: HeLa-hACE2 cells
Assay: Immunofluorescence-based antiviral assay with LysoTracker dye in HeLa-hACE2
Details: read-out: EC50 against SARS-CoV-2 from the LysoTracker assay

SMILES	EC50 (24 h)	EC50
C[C@H](NC(=O)[C@H](Cc1ccc(O)cc1)NC(=O)OCc1ccccc1)C(=O)C=[N+]=[N-]	40 nM	
CN1CCN(C(=O)N[C@@H](Cc2ccccc2)C(=O)N[C@H](/C=C/S(=O)(=O)c2ccccc2)CCc2ccccc2)CC1 [K777]		0.6 nM

Where two headings read alike, the source gives them in different places.
